{
  "source": "paper PMC12820563",
  "note": "Some of the results follow. The list includes weakly bound sequences.",
  "data": [
    {"molecular_target": "T1, MBP-FoxP3dN (UniProt Q99JB6)", "T1 sequence": "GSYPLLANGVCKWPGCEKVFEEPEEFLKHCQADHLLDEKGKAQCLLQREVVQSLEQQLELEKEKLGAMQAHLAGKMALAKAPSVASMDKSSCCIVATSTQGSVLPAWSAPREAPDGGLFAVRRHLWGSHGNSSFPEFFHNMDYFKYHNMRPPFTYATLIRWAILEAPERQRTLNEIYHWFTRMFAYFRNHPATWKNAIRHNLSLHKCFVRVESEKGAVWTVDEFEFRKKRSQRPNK", "experiment": "PD-seq (MBP pull-down with sequencing)", "conditions": "20 mM Tris-HCl pH 7.5, 100 mM NaCl, 1.5 mM MgCl2, 0.4 uM protein, 0.1 uM dsDNA library, 30 min, room temperature, amylose pull-down; high values mean tight binding; double strand, one strand shown", "values": [
      {"sequence": "GATGATTGTTCTCCCAGCTGATGAATTATCCCAATCGAGTAAACAAATTTTCCTAATCTTTCTGTTCAAGCGCCATCTAC", "binding signal (RPM ratio (pull-down/input))": 0.311},
      {"sequence": "GATGATTGTTCTCCCAGCTGATGAATTGCTTCTGTCGAGTAAACAAATTTTCCTAATCTTTCTGTTCAAGCGCCATCTAC", "binding signal (RPM ratio (pull-down/input))": 0.468},
      {"sequence": "GATGATTGTTCTCCCAGCTGATGAATTGATTCGATCGAGTAAACAAATTTTCCTAATCTTTCTGTTCAAGCGCCATCTAC", "binding signal (RPM ratio (pull-down/input))": 0.315},
      {"sequence": "GATGATTGTTCTCCCAGCTGATGAATTGTGCTGCTCGAGTAAACAAATTTTCCTAATCTTTCTGTTCAAGCGCCATCTAC", "binding signal (RPM ratio (pull-down/input))": 1.11},
      {"sequence": "GATGATTGTTCTCCCAGCTGATGAATTCGCAGCGTCGAGTAAACAAATTTTCCTAATCTTTCTGTTCAAGCGCCATCTAC", "binding signal (RPM ratio (pull-down/input))": 0.613},
      {"sequence": "GATGATTGTTCTCCCAGCTGATGAATTTCCAACCTCGAGTAAACAAATTTTCCTAATCTTTCTGTTCAAGCGCCATCTAC", "binding signal (RPM ratio (pull-down/input))": 0.248},
      {"sequence": "GATGATTGTTCTCCCAGCTGATGAATTATTACCGTCGAGTAAACAAATTTTCCTAATCTTTCTGTTCAAGCGCCATCTAC", "binding signal (RPM ratio (pull-down/input))": 0.358},
      {"sequence": "GATGATTGTTCTCCCAGCTGATGAATTCCCAGCGTCGAGTAAACAAATTTTCCTAATCTTTCTGTTCAAGCGCCATCTAC", "binding signal (RPM ratio (pull-down/input))": 0.371},
      {"sequence": "GATGATTGTTCTCCCAGCTGATGAATTCGGCCGGTCGAGTAAACAAATTTTCCTAATCTTTCTGTTCAAGCGCCATCTAC", "binding signal (RPM ratio (pull-down/input))": 0.43},
      {"sequence": "GATGATTGTTCTCCCAGCTGATGAATTTTTAAGTTCGAGTAAACAAATTTTCCTAATCTTTCTGTTCAAGCGCCATCTAC", "binding signal (RPM ratio (pull-down/input))": 0.226},
      {"sequence": "GATGATTGTTCTCCCAGCTGATGAATTCTCACACTCGAGTAAACAAATTTTCCTAATCTTTCTGTTCAAGCGCCATCTAC", "binding signal (RPM ratio (pull-down/input))": 0.322},
      {"sequence": "GATGATTGTTCTCCCAGCTGATGAATTTTTGTTGTCGAGTAAACAAATTTTCCTAATCTTTCTGTTCAAGCGCCATCTAC", "binding signal (RPM ratio (pull-down/input))": 3.24},
      {"sequence": "GATGATTGTTCTCCCAGCTGATGAATTCGCAGAATCGAGTAAACAAATTTTCCTAATCTTTCTGTTCAAGCGCCATCTAC", "binding signal (RPM ratio (pull-down/input))": 0.208},
      {"sequence": "GATGATTGTTCTCCCAGCTGATGAATTGACTAAGTCGAGTAAACAAATTTTCCTAATCTTTCTGTTCAAGCGCCATCTAC", "binding signal (RPM ratio (pull-down/input))": 0.218},
      {"sequence": "GATGATTGTTCTCCCAGCTGATGAATTTCGTGATTCGAGTAAACAAATTTTCCTAATCTTTCTGTTCAAGCGCCATCTAC", "binding signal (RPM ratio (pull-down/input))": 0.932},
      {"sequence": "GATGATTGTTCTCCCAGCTGATGAATTACCTGGATCGAGTAAACAAATTTTCCTAATCTTTCTGTTCAAGCGCCATCTAC", "binding signal (RPM ratio (pull-down/input))": 0.195},
      {"sequence": "GATGATTGTTCTCCCAGCTGATGAATTGGGGCACTCGAGTAAACAAATTTTCCTAATCTTTCTGTTCAAGCGCCATCTAC", "binding signal (RPM ratio (pull-down/input))": 0.454},
      {"sequence": "GATGATTGTTCTCCCAGCTGATGAATTTGTCCCCTCGAGTAAACAAATTTTCCTAATCTTTCTGTTCAAGCGCCATCTAC", "binding signal (RPM ratio (pull-down/input))": 3.08},
      {"sequence": "GATGATTGTTCTCCCAGCTGATGAATTATGAACATCGAGTAAACAAATTTTCCTAATCTTTCTGTTCAAGCGCCATCTAC", "binding signal (RPM ratio (pull-down/input))": 0.545},
      {"sequence": "GATGATTGTTCTCCCAGCTGATGAATTTCAAAGTTCGAGTAAACAAATTTTCCTAATCTTTCTGTTCAAGCGCCATCTAC", "binding signal (RPM ratio (pull-down/input))": 0.182},
      {"sequence": "GATGATTGTTCTCCCAGCTGATGAATTATGTCTCTCGAGTAAACAAATTTTCCTAATCTTTCTGTTCAAGCGCCATCTAC", "binding signal (RPM ratio (pull-down/input))": 2},
      {"sequence": "GATGATTGTTCTCCCAGCTGATGAATTCCGAACTTCGAGTAAACAAATTTTCCTAATCTTTCTGTTCAAGCGCCATCTAC", "binding signal (RPM ratio (pull-down/input))": 0.253},
      {"sequence": "GATGATTGTTCTCCCAGCTGATGAATTTCAGTGATCGAGTAAACAAATTTTCCTAATCTTTCTGTTCAAGCGCCATCTAC", "binding signal (RPM ratio (pull-down/input))": 0.453},
      {"sequence": "GATGATTGTTCTCCCAGCTGATGAATTTGCTGCATCGAGTAAACAAATTTTCCTAATCTTTCTGTTCAAGCGCCATCTAC", "binding signal (RPM ratio (pull-down/input))": 2.1},
      {"sequence": "GATGATTGTTCTCCCAGCTGATGAATTTATTAATTCGAGTAAACAAATTTTCCTAATCTTTCTGTTCAAGCGCCATCTAC", "binding signal (RPM ratio (pull-down/input))": 1.22},
      {"sequence": "GATGATTGTTCTCCCAGCTGATGAATTTCAATGTTCGAGTAAACAAATTTTCCTAATCTTTCTGTTCAAGCGCCATCTAC", "binding signal (RPM ratio (pull-down/input))": 0.864},
      {"sequence": "GATGATTGTTCTCCCAGCTGATGAATTGCACCTGTCGAGTAAACAAATTTTCCTAATCTTTCTGTTCAAGCGCCATCTAC", "binding signal (RPM ratio (pull-down/input))": 0.924},
      {"sequence": "GATGATTGTTCTCCCAGCTGATGAATTTTTCTAATCGAGTAAACAAATTTTCCTAATCTTTCTGTTCAAGCGCCATCTAC", "binding signal (RPM ratio (pull-down/input))": 0.288},
      {"sequence": "GATGATTGTTCTCCCAGCTGATGAATTAACAGCTTCGAGTAAACAAATTTTCCTAATCTTTCTGTTCAAGCGCCATCTAC", "binding signal (RPM ratio (pull-down/input))": 0.356},
      {"sequence": "GATGATTGTTCTCCCAGCTGATGAATTGATAATCTCGAGTAAACAAATTTTCCTAATCTTTCTGTTCAAGCGCCATCTAC", "binding signal (RPM ratio (pull-down/input))": 0.411},
      {"sequence": "GATGATTGTTCTCCCAGCTGATGAATTAGAACCATCGAGTAAACAAATTTTCCTAATCTTTCTGTTCAAGCGCCATCTAC", "binding signal (RPM ratio (pull-down/input))": 0.294},
      {"sequence": "GATGATTGTTCTCCCAGCTGATGAATTTCAGAGGTCGAGTAAACAAATTTTCCTAATCTTTCTGTTCAAGCGCCATCTAC", "binding signal (RPM ratio (pull-down/input))": 0.235}
    ]}
  ]
}
